# According to the supplement of paper PMC3334620:
# The full ranking holds about 33,000 sequences; the median of “E-score (-0.5 to 0.5)” is about -0.053, and the highest 2% start at about 0.37. This is one part of the list.
# Target: Hap1 (UniProt P0CE41)
# Test: PBM E-score (8-mer binding enrichment) (E-score (-0.5 to 0.5)); higher = stronger / more preferred TF binding; most listed sequences are background and not binding sites
# Conditions: protein concentration: 200 nM; construct: GST-DNA-binding domain
# Summary of the method: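 For each ungapped eight-base word taken together with its reverse complement, the Universal PBM Analysis Suite assigned an E-score. Binding data came from GST-tagged yeast transcription factors, applied at about 100-200 nM, on universal all-10-mer Agilent arrays made double-stranded by primer extension. Fluorescent anti-GST marked bound protein, and scans were normalised with masliner.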
# Sequence of UniProt P0CE41 (P0CE41 whole entry): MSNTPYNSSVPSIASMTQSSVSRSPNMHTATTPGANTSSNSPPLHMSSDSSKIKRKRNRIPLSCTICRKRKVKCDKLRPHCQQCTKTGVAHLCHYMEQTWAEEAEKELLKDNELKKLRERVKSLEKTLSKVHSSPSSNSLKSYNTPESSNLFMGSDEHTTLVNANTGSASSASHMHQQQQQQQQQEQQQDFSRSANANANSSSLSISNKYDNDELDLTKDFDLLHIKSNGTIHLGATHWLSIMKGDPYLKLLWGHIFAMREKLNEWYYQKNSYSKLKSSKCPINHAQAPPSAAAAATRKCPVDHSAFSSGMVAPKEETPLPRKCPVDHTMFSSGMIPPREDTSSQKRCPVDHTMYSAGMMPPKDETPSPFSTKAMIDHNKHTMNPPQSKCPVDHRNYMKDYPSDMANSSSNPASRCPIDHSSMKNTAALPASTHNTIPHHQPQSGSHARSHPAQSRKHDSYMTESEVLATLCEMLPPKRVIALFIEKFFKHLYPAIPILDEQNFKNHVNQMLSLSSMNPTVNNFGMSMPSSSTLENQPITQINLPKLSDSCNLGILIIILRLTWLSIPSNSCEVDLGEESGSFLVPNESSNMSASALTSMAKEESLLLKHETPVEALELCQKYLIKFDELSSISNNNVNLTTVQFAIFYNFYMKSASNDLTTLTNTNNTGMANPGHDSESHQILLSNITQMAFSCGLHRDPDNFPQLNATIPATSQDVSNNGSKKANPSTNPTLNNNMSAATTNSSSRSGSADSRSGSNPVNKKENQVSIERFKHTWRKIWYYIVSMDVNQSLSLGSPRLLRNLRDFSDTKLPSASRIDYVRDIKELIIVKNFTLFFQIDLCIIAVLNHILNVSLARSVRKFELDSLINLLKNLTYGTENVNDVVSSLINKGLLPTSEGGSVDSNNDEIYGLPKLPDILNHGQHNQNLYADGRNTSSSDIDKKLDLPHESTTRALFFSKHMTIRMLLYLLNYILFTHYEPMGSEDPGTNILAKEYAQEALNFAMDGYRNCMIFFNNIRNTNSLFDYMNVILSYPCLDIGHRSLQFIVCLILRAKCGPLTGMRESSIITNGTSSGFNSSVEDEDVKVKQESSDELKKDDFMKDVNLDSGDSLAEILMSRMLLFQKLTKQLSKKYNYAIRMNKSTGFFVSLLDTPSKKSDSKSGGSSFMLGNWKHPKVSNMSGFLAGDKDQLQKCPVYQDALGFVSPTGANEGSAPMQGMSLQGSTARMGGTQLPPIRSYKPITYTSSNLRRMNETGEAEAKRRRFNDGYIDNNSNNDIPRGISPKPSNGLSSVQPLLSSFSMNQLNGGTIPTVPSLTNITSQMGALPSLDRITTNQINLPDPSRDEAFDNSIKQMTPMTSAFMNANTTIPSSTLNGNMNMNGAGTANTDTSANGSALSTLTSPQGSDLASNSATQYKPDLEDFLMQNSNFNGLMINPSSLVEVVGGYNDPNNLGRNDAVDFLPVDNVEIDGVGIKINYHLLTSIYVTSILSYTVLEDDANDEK
row,Sequence,PBM E-score
1,AGGCGAGA,-0.159
2,AGAATGAG,-0.231
3,CGTAGGAC,0.00085
4,GACACAAA,0.132
5,CCTTTCTA,-0.03
6,TGAGACCA,-0.264
7,ATCTGTTG,-0.0716
8,AGCTGCGG,0.191
9,GCGCTATA,-0.0951
10,CACGTTAA,-0.207
11,ACAGATCG,0.0276
12,CTGCACGC,-0.107
13,AAGCCTAG,-0.133
14,AGACAATC,-0.0273
15,AAAGCTCA,-0.252
16,GAAACCCA,0.148
17,CTTAACAA,-0.0403
18,AGTCCCGG,0.322
19,GCGCTCAC,-0.0742
20,ACAATGGG,0.0849
21,AGTATAAA,0.24
22,CGTCTGTA,-0.0818
23,GAGCGGGC,0.0956
24,AGGATGAA,-0.0625
25,ATGGGCAC,0.00145

row,Sequence,PBM E-score
1,CTAGGACC,-0.00968
2,AGTAGAGA,-0.216
3,CCCGCGTA,0.139
4,CTCGGTAC,0.197
5,TACCGGAA,0.442
6,CCCGACAA,0.311
7,GCCGGCCA,0.284
8,ACTCAACC,-0.0121
9,GAGCTAAC,0.2
10,AGTCAGTC,-0.186
11,AATTCCGG,0.451
12,ACCCCAAT,-0.223
13,CGATGCCG,0.179
14,CCCATCCA,-0.125
15,CAAAGCAA,0.0207
16,CGAGCGGC,0.238
17,ATAATTTC,0.146
18,GCTCCTCA,-0.218
19,AGTCAGTA,-0.222
20,GCCAAACC,0.0907
21,ATCCTATC,0.158
22,GTGAGACA,-0.0699
23,ATAGGAAA,0.0814
24,AGTCCTTC,-0.0394
25,CCGAAGAA,0.328

row,Sequence,PBM E-score
1,ACGAACCC,0.183
2,TATACTCA,-0.149
3,TTAGATAA,-0.194
4,CGTGCATA,-0.228
5,ATAAGGTG,0.101
6,GACATCGC,0.136
7,ATGGTCCA,-0.226
8,TCGGACAA,0.394
9,GAATTATC,-0.0341
10,CACAAAAC,-0.032
11,CCCCATCC,0.094
12,CTCGTATC,0.00451
13,CGGTTTCC,0.281
14,CAACAGTC,-0.0859
15,AATCACGA,-0.0677
16,CCCTAGGA,-0.214
17,AGGTACAT,-0.257
18,TCTGTCAA,-0.19
19,ATGTCCGC,0.374
20,CTGTCTGA,-0.128
21,CAAGCTGC,0.073
22,CCAAGGAC,-0.213
23,CAATAACA,-0.223
24,AGTGCTAC,-0.274
25,AGAATTGC,-0.0636

row,Sequence,PBM E-score
1,TGAGCAAA,-0.0621
2,AGAACGCA,-0.145
3,TCGATCAA,-0.151
4,CTCGCGTC,0.0937
5,CAATATAC,-0.105
6,AGTTGACA,-0.211
7,ACCGCATA,0.141
8,CCGGCGTC,0.308
9,ACACCGAT,0.336
10,CCTACATC,0.0921
11,GCTCATCA,-0.0635
12,ACAGACAC,-0.0222
13,ACTATTCT,-0.0623
14,CGTGCTTA,-0.0624
15,GCCATCCC,-0.0981
16,GGTATGAA,-0.131
17,GGGTTGCA,-0.0863
18,CTGCGTGA,-0.0972
19,AAGATTGC,-0.085
20,CGGTATTC,0.304
21,AAAGTTAT,0.0134
22,CCAGATAG,-0.308
23,ATGGAGAC,-0.0655
24,ATTATATC,0.126
25,GAGCCCAA,-0.156

row,Sequence,PBM E-score
1,CATGCACC,-0.0714
2,CTCGAGTC,-0.169
3,GGTTAGAA,-0.101
4,TACTAGAA,-0.0532
5,ATCTCGTA,-0.144
6,ACGTAAGC,-0.106
7,AACGGAGT,0.373
8,CGAGGTGC,0.196
9,GCTAGCTA,-0.199
10,GTTGCGTA,-0.0346
11,CGAAATAC,0.163
12,AAGCTATA,-0.185
13,AGCAAATA,-0.0902
14,GGCTCTAA,0.113
15,CAAGGGTC,0.0456
16,CGTAACGC,0.0437
17,AGGTCAAG,-0.17
18,GCAGCTCC,-0.045
19,CCCGCTTA,0.068
20,CAGCCATG,-0.281
21,GAAACTCC,0.172
22,CTTTTATC,0.295
23,ATTTCGAA,0.00741
24,CTTGTCCC,0.174
25,GGTGAAAC,0.158

row,Sequence,PBM E-score
1,TCAGATCA,-0.289
2,GTACGAGA,-0.013
3,ACATGACC,-0.189
4,AGTAAGAC,-0.13
5,ACGCAGAG,-0.138
6,GGTTAAGA,0.0931
7,CAGGCGAC,0.0654
8,AGTGTGGG,-0.082
9,GGCGATTA,0.29
10,AGCAAAGG,-0.123
11,AATGCTAA,-0.147
12,GGCAGATA,0.137
13,CCCACCGA,0.0319
14,CTATCTGA,-0.318
15,GCCGTCGC,0.0639
16,TAATCTGA,-0.00376
17,ACGCTTTA,-0.238
18,CGATTTCC,0.294
19,CAGGTCAC,-0.34
20,AACTTGAG,-0.183
21,ATGTGCTA,0.0588
22,GTCCCACA,-0.0652
23,AGTAACTC,0.0357
24,CATCCACA,-0.161
25,CGACCATC,0.061

row,Sequence,PBM E-score
1,GTAGTACA,-0.194
2,ATCACGAT,-0.186
3,ACGCTAAG,-0.259
4,GGACAGGA,-0.138
5,ATCGAAGG,-0.0491
6,GTGTGAAA,-0.146
7,AAAAACGT,-0.122
8,AGGCTTAC,-0.00465
9,CGGCATAC,0.196
10,CACACGAC,-0.152
11,AAGTTGTG,-0.103
12,AACAAATA,0.0382
13,ATTACACG,0.0389
14,AGGGTAAG,0.0224
15,TAAACGCA,-0.181
16,AGATGAAT,-0.22
17,TCCCACGA,-0.0711
18,CCGGACTA,0.404
19,GCTAGGTA,-0.167
20,CATACGTA,-0.0246
21,GTGATCTA,0.0438
22,ACCACATA,-0.107
